Values marked as one replicate rest on one cluster of the flow cell; about a third of the high ones do not repeat.
tested on: ATP; test: switch fluorescence ratio, 500 uM ATP over buffer (Cy3 cluster intensity, sum of 5 cycles each) (fold (ratio)); higher = stronger signal-on switching upon ATP binding; sequences stand for … in TCGTCGGCAGCGTCAGATGTGTATAAGAGACAGTTTTTTTTTTTTTTTTTTTTTTTTT…TC; details: aptamer strand: ATP DNA aptamer (quencher-CACCTGGGGGAGTATTGCGGAGGAAGG + anchor), 100 nM annealed; ATP concentration: 500 uM; one replicate
Summary of the method: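 Cy3-labelled switching-strand clusters on a modified Illumina MiSeq flow-cell were annealed to 100 nM quencher-labelled ATP aptamer, imaged in selection buffer, then imaged after 15 min with 500 uM ATP at 22 °C. Five buffer/ATP cycles ran, with NaOH stripping and re-annealing between them. The fluorescence ratio is summed target-cycle over summed buffer-cycle Cy3 intensity per cluster, averaged per switch-domain sequence. Clusters outside 100-1000 RFU were excluded.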
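Further: ATP exposure 15 min at 22 °C before imaging.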

| Sequence | switch fluorescence ratio |
| --- | --- |
| GAGGGGCCTT | 1.03 |
| GAGGGGTACA | 1 |
| GAGGGTCGGT | 0.994 |
| GAGGGTCTGA | 0.989 |
| GAGGGTGTC | 0.975 |
| GAGGGTTACG | 1.03 |
| GAGGTAACAT | 1.02 |
| GAGGTATGTC | 1.04 |
| GAGGTCAAC | 0.954 |
| GAGGTCCGGG | 0.969 |
| GAGGTCCTCT | 1.01 |
| GAGGTCGGAT | 0.947 |
| GAGGTGCTTT | 1.03 |
| GAGGTGGCGC | 0.971 |
| GAGGTTAAAA | 0.98 |
| GAGTAAAAAT | 1 |
| GAGTAAAGCC | 1.01 |
| GAGTAAATAT | 1 |
| GAGTAAGCTT | 0.986 |
| GAGTAGATGG | 1.02 |
| GAGTATCGAA | 1.02 |
| GAGTCACTGA | 1.06 |

| Sequence | switch fluorescence ratio |
| --- | --- |
| GAGTCATGCT | 1.02 |
| GAGTCCGGCG | 0.994 |
| GAGTCGATGC | 1.09 |
| GAGTCGCCAC | 0.961 |
| GAGTCGGTTT | 0.983 |
| GAGTCTCCGG | 1.02 |
| GAGTGAGGGG | 1.1 |
| GAGTGCGGCA | 1.03 |
| GAGTGCGT | 1 |
| GAGTGGATAT | 1.01 |
| GAGTGGGAAG | 1 |
| GAGTGGTAGT | 0.962 |
| GAGTGGTGG | 0.915 |
| GAGTGTAA | 0.963 |
| GAGTGTGTAT | 1.05 |
| GAGTTAACGC | 1.06 |
| GAGTTCGTAT | 1 |
| GAGTTGGCGA | 0.99 |
| GAGTTTACGG | 0.972 |
| GAGTTTGGAG | 0.99 |
| GATAAAAAA | 1.03 |
| GATAAAGCCT | 0.995 |

| Sequence | switch fluorescence ratio |
| --- | --- |
| GATAACTACG | 1.07 |
| GATAAGCCAG | 0.968 |
| GATAAGTTAG | 1.01 |
| GATAATTCTC | 0.982 |
| GATACAGCTG | 0.955 |
| GATACAGTCG | 0.992 |
| GATACATAGG | 1.07 |
| GATACATGCA | 1.04 |
| GATACATTCG | 0.983 |
| GATACCAGAA | 1.01 |
| GATACCTATA | 1 |
| GATACGGATA | 1.04 |
| GATACGTCTG | 1.08 |
| GATACTTATT | 0.981 |
| GATAGAGCCC | 1 |
| GATAGAGCTC | 0.991 |
| GATAGAGGAT | 0.978 |
| GATAGGCGAA | 1.03 |
| GATAGGGGA | 0.998 |
| GATAGTTTGC | 1.01 |
| GATATAAACT | 0.985 |
| GATATACGTA | 0.959 |

| Sequence | switch fluorescence ratio |
| --- | --- |
| GATATACTAG | 1.01 |
| GATATAGAAG | 0.997 |
| GATATAGGTA | 0.996 |
| GATATATAGT | 0.995 |
| GATATCGACC | 1.07 |
| GATATCGGGC | 1.02 |
| GATATCGTA | 0.989 |
| GATATGCC | 0.988 |
| GATATGGGTT | 1.01 |
| GATATTAAC | 0.999 |
| GATATTGTCG | 1.08 |
| GATATTTAAC | 1.07 |
| GATCAAGC | 0.982 |
| GATCAATGTC | 0.995 |
| GATCACTAAT | 1.02 |
| GATCACTGGG | 1.03 |
| GATCAGCACC | 1.12 |
| GATCAGGGT | 0.969 |
| GATCAGTCAA | 1.01 |

— the supplement of paper PMC10126150
